The record followed here is the antibiotic and cytotoxicity screens of Wong et al. (2023).

One experiment deals with HSkMC. Briefly: cytotoxicity call (relative viability < 0.9). The settings on record: 10 µM.
In the next experiment the test system is HepG2. Briefly: cytotoxicity call (relative viability < 0.9). To be noted: 10 µM.
In the next experiment the test system is S. aureus RN4220. Briefly: growth inhibition call (relative growth <= 0.2). To be noted: 50 µM.

Some of the results follow.

For the compound `c1coc(-c2nc3ccccc3n2CCC2CCCCC2)c1`, the cytotoxicity call in the experiment on HSkMC and with HepG2 was “inactive” throughout. Moreover, the growth inhibition call in the experiment with S. aureus RN4220 was “inactive”.

Regarding `O=C(C[C@@H]1C[C@@H]2c3cc(NC(=O)C4CCOCC4)ccc3O[C@@H]2[C@H](CO)O1)NCCN1CCCCC1`, the cytotoxicity call in the experiment with HSkMC and in the experiment on HepG2 was “inactive” each time. Besides, the growth inhibition call with S. aureus RN4220 was “inactive”.

With `CO[C@H]1CN(C)C(=O)c2ccc(NC(=O)C3CCOCC3)cc2OC[C@@H](C)N(Cc2cccnc2)C[C@H]1C`, the cytotoxicity call in the experiment on HSkMC and in the experiment on HepG2 was “inactive” each time. For the same compound, in the experiment with S. aureus RN4220, the growth inhibition call is “inactive”.

For the compound `C[N+](C)(C)CCCCCC[N+](C)(C)C.[Br-].[Br-]`, the cytotoxicity call in the experiment on HSkMC and in the experiment on HepG2 was “inactive” in each case. For the same compound, the growth inhibition call in the experiment on S. aureus RN4220 is “inactive”.

Turning to `Cc1noc(C)c1S(=O)(=O)Nc1ccc2c(c1)CC(=O)N([C@@H](C)CO)C[C@H](C)[C@H](CN(C)C(=O)Nc1ccc3c(c1)OCO3)O2`, the cytotoxicity call in the experiment with HSkMC and in the experiment on HepG2 was “inactive” each time. Further, in the experiment on S. aureus RN4220, the growth inhibition call is “inactive”.

As for `COCC(=O)Nc1ccc2c(c1)OC[C@H](C)N(Cc1ccccc1OC)C[C@H](C)[C@H](OC)CN(C)C2=O`, the cytotoxicity call with HSkMC and in the experiment with HepG2 was “inactive” each time. Moreover, in the experiment on S. aureus RN4220, the growth inhibition call is “inactive”.

On to `COc1ccc(NC(=O)N(C)C[C@@H]2Oc3c(NC(=O)C4CCOCC4)cccc3C(=O)N([C@@H](C)CO)C[C@H]2C)cc1`, for which the cytotoxicity call in the experiment with HSkMC and in the experiment with HepG2 was “inactive” in each case. In addition, in the experiment on S. aureus RN4220, the growth inhibition call is “inactive”.

Turning to `N#Cc1ccc(O)c(O)c1`, in the experiment on HSkMC, the cytotoxicity call is “inactive”. Moreover, the cytotoxicity call in the experiment on HepG2 was “active”. The growth inhibition call with S. aureus RN4220 was “inactive”.

For `CC(C)C#Cc1ccc2c(c1)O[C@H](CN(C)C(=O)Cc1ccccn1)[C@@H](C)CN([C@@H](C)CO)S2(=O)=O`, the cytotoxicity call with HSkMC and with HepG2 was “inactive” throughout. The growth inhibition call with S. aureus RN4220 is “inactive”.

Turning to `CC(C)NC(=O)Nc1ccc2c(c1)C(=O)N([C@H](C)CO)C[C@H](C)[C@H](CN(C)Cc1ccccc1)OCCCC[C@@H](C)O2`, the cytotoxicity call in the experiment with HSkMC and in the experiment on HepG2 was “inactive” throughout. For the same compound, the growth inhibition call with S. aureus RN4220 was “inactive”.

On to `O=C(N/N=C/[C@@H](O)[C@@H](O)[C@H](O)[C@H](O)CO)c1ccccn1`, for which the cytotoxicity call in the experiment with HSkMC and with HepG2 was “inactive” each time. Besides, in the experiment with S. aureus RN4220, the growth inhibition call is “inactive”.

In the case of `CCCN(C)C[C@H]1OCCCC[C@H](C)Oc2ccc(NS(=O)(=O)c3cn(C)cn3)cc2C(=O)N([C@H](C)CO)C[C@H]1C`, the cytotoxicity call with HSkMC and with HepG2 was “inactive” in each case. For the same compound, the growth inhibition call in the experiment on S. aureus RN4220 was “inactive”.

`O=C(C[C@@H]1CC=CC[C@@H](Cc2ccc(F)cc2)C(=O)OC[C@H](Cc2c[nH]c3ccccc23)NC1=O)NCCO`: the cytotoxicity call with HSkMC and in the experiment with HepG2 was “inactive” throughout. In addition, the growth inhibition call in the experiment on S. aureus RN4220 is “inactive”.

As for `CN(C)C(=O)C[C@H]1CC[C@@H]2[C@H](COc3ccc(NS(=O)(=O)c4cccc(F)c4)cc3C(=O)N2C)O1`, the cytotoxicity call with HSkMC and in the experiment with HepG2 was “inactive” throughout. In the experiment on S. aureus RN4220, the growth inhibition call is “inactive”.

On to `C[C@H](CO)N1C[C@H](C)[C@H](CN(C)C(=O)C2CCOCC2)Oc2cc(C3=CCCC3)ccc2S1(=O)=O`, for which the cytotoxicity call in the experiment on HSkMC and in the experiment on HepG2 was “inactive” throughout. In the experiment on S. aureus RN4220, the growth inhibition call is “inactive”.

As for `COCC(=O)Nc1ccc2c(c1)C(=O)N(C)C[C@@H](OC)[C@H](C)CN(C(=O)c1ccccc1F)[C@@H](C)CO2`, the cytotoxicity call in the experiment on HSkMC and in the experiment on HepG2 was “inactive” throughout. The growth inhibition call with S. aureus RN4220 is “inactive”.

As to `C[C@@H]1CN([C@H](C)CO)C(=O)Cc2cc(NC(=O)Nc3ccc(C(F)(F)F)cc3)ccc2O[C@@H]1CN(C)CC1CCCCC1`, the cytotoxicity call in the experiment on HSkMC and with HepG2 was “active” in each case. For the same compound, the growth inhibition call in the experiment with S. aureus RN4220 is “inactive”.

`Cc1noc(C)c1S(=O)(=O)Nc1ccc2c(c1)C(=O)N([C@@H](C)CO)C[C@@H](C)[C@H](CN(C)Cc1ccccc1)O2`: the cytotoxicity call with HSkMC and with HepG2 was “inactive” in each case. Further, the growth inhibition call with S. aureus RN4220 was “inactive”.

Regarding `COCC(=O)Nc1ccc2c(c1)OC[C@H](C)N(C(=O)c1ccccc1F)C[C@H](C)[C@H](OC)CN(C)C2=O`, the cytotoxicity call in the experiment with HSkMC and in the experiment on HepG2 was “inactive” each time. In addition, the growth inhibition call with S. aureus RN4220 was “inactive”.

In the case of `Cc1ccc(S(=O)(=O)Nc2ccc3c(c2)C(=O)N([C@@H](C)CO)C[C@@H](C)[C@H](CN(C)Cc2ccc(C(=O)O)cc2)OCCCC[C@@H](C)O3)cc1`, the cytotoxicity call in the experiment on HSkMC and in the experiment on HepG2 was “inactive” in each case. Further, in the experiment with S. aureus RN4220, the growth inhibition call is “inactive”.

For the compound `COc1ccc(S(=O)(=O)N(C)C[C@H]2OCCCC[C@@H](C)Oc3ccc(NC(=O)CCCCCC(=O)Nc4ccccc4N)cc3C(=O)N([C@H](C)CO)C[C@@H]2C)cc1`, the cytotoxicity call in the experiment on HSkMC and in the experiment with HepG2 was “inactive” each time. Further, in the experiment with S. aureus RN4220, the growth inhibition call was “inactive”.

In the case of `CC(C)NC(=O)N(C)C[C@@H]1Oc2ccc(NC(=O)Cc3ccccc3)cc2CC(=O)N([C@@H](C)CO)C[C@H]1C`, the cytotoxicity call in the experiment on HSkMC (human skeletal muscle cells) and with HepG2 was “inactive” in each case. In addition, the growth inhibition call in the experiment with S. aureus RN4220 was “inactive”.

Turning to `CC(C)NC(=O)N(C)C[C@H]1OCCCC[C@@H](C)Oc2ccc(NC(=O)Nc3ccc(F)cc3)cc2C(=O)N([C@@H](C)CO)C[C@H]1C`, the cytotoxicity call in the experiment with HSkMC and in the experiment with HepG2 was “inactive” in each case. Also, the growth inhibition call in the experiment on S. aureus RN4220 is “inactive”.

Consider `C[C@@H]1CN([C@H](C)CO)C(=O)c2c(c3ccccc3n2C)-c2ccccc2CO[C@H]1CN(C)C(=O)Nc1cccc(F)c1`, for which the cytotoxicity call in the experiment with HSkMC and in the experiment with HepG2 was “inactive” each time. Moreover, the growth inhibition call with S. aureus RN4220 was “inactive”.

In the case of `Cc1ccc(S(=O)(=O)Nc2ccc3c(c2)C(=O)N([C@@H](C)CO)C[C@H](C)[C@H](CN(C)CC2CCCCC2)OCCCC[C@H](C)O3)cc1`, the cytotoxicity call with HSkMC and in the experiment on HepG2 was “inactive” throughout. For the same compound, the growth inhibition call with S. aureus RN4220 was “inactive”.

As for `C[C@H](CO)N1C[C@H](C)[C@@H](CN(C)Cc2ccc(C(=O)O)cc2)OCCCC[C@H](C)Oc2ccc(NC(=O)Nc3ccccc3)cc2C1=O`, the cytotoxicity call with HSkMC and in the experiment with HepG2 was “inactive” in each case. The growth inhibition call in the experiment on S. aureus RN4220 was “inactive”.

On to `C[C@@H]1CN([C@@H](C)CO)C(=O)c2cc(NC(=O)Nc3cccc4ccccc34)ccc2O[C@@H]1CN(C)Cc1ccccc1`, for which the cytotoxicity call in the experiment with HSkMC is “inactive”. Further, the cytotoxicity call in the experiment on HepG2 is “active”. Moreover, the growth inhibition call with S. aureus RN4220 was “inactive”.
